From PMC12136788
Changes are numbered by the printed parent chain. The list shows a part of the results.

T1: UNK ZnF1-6 (called full-length) (human, UniProt Q9C0B0 30-357)
T1 sequence: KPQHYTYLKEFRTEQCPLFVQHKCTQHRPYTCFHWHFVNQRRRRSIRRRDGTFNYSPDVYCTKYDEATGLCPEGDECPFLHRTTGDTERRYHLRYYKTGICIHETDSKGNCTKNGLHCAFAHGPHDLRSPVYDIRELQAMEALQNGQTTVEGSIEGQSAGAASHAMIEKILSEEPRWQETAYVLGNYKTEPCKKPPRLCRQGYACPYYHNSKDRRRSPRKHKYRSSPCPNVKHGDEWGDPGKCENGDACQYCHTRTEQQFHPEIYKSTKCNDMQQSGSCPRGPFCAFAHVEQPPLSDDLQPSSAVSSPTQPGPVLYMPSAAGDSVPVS

B1: chr22:38736040:38736148:-|3pUTR|ENSG00000100242|msi1|FALSE|unique (ssRNA)
RNA: GGGAGUUCUACAGUCCGACGAUCCCCCAUGCAGAUGAAAAGGACGGGCAGGGUCUCCUGAGCAGCAGGUGGCUCGAGGCGGUUAGCAGGCUCCAGCAGCUCCCUUCUUCCUUCCCUCUGUGCCCGUGGCGUCUGCUUCCCAUCCAACAGAGGAUUGAGCAUCA
B2: chr11:6768009:6768957:-|CDS|ENSG00000188124|control|control|control (ssRNA)
RNA: GGGAGUUCUACAGUCCGACGAUCCGUGACAGGUGUGACUUUCCUCUUGCUCCCCAUUUCUGCCAUUGUGGCCUCCUACACACUAGUCCUAUUCACUGUGCUUCGUAUGCCAUCAAAUGAGGGGAGGAAGAAAGCCCUUGUCACCAACAGAGGAUUGAGCAUCA
B3: chr16:75660256:75661249:-|CDS|ENSG00000284484|control|control|control (ssRNA)
RNA: GGGAGUUCUACAGUCCGACGAUCCUGGGGCAAGAUAUGCAGGUAGGGGCUUCAAGCAACUCAGGACUCAAAUGCAGCAGUUUUAGGUUGAGGGGUCUACACGGGCCUGCCACAGGAACCCAAGGAUGCAGCUUUGCAAAGUAUCAACAGAGGAUUGAGCAUCA
B4: chr10:133362484:133362867:-|three_prime_utr|ENSG00000127884|control|control|control (ssRNA)
RNA: GGGAGUUCUACAGUCCGACGAUCAACCAGCUGCCCCUGCUUCACACCUCUGCUUGGAGAGGACAAGUGCAGCCUGUCAGUUUUAGAAGCAAGUAAAUCAUCCUCUUUUCAAGAGCAGUGUCCGUGGUGUGCAGUUCCUCUCCACAACAGAGGAUUGAGCAUCA
B5: chr6:105098072:105098315:-|3pUTR|ENSG00000112276|msi1|FALSE|unique (ssRNA)
RNA: GGGAGUUCUACAGUCCGACGAUCGUACUUUAAAUUCAUUUAUACAAAUGAAUAAGUGUAUCUUUGUAUAAUGCAUAAAUACAUAGAUAAAAACAUGUUUGCUGCCAAAGUUCCCAAUAAGAUGCUUCCUGUGUUUUUUGGCCUCAACAGAGGAUUGAGCAUCA
B6: chr3:149738563:149738664:-|3pUTR|ENSG00000114744|unk|total|mutant (ssRNA)
RNA: GGGAGUUCUACAGUCCGACGAUCUGGAUUAUUAUGGGUCCUUGAUAAAUUCUCAAAGCCUUUUUUUUUGUUCAUCUCUAAAACCGGAAUACCGGAUUACCUACCACAUUGACUCGUAAGGACUAUAUGAGACCAUGUAUACCGCAACAGAGGAUUGAGCAUCA
B7: ENSG00000198589:be:win_3951|CDS|ENSG00000198589|bound_else_gene|NA|bound_elsewhere_windowed (ssRNA)
RNA: GGGAGUUCUACAGUCCGACGAUCUUUGCUCACUGAUCUAUUAUUUUCAAUAGAAACAGAUAUACAGAUGUGGAGAAGCCAUUCAACAAAGACAGUUAUGGACUUCGUGAAUAGCAGUGAUAAUGUCAUCUUUGUACACAACACCAACAGAGGAUUGAGCAUCA
B8: ENSG00000107863:be:win_1151|CDS|ENSG00000107863|bound_else_gene|NA|bound_elsewhere_windowed (ssRNA)
RNA: GGGAGUUCUACAGUCCGACGAUCUAGACUGGAAAAACUAUAAAACUUACAAAGAGUAUAUUGAUAACAGACGAUUGCACAUAGGUUGUCGGACAAUACAAGAAAGAUUAGAUAGUUUAAGAGCAGCAUCUCAAAGCACGACAGCAACAGAGGAUUGAGCAUCA
B9: chr6:43013266:43013367:-|CDS|ENSG00000124733|msi1|total|mutant (ssRNA)
RNA: GGGAGUUCUACAGUCCGACGAUCAUCCCUGUCCUACCGCCUCCCUGUUCUUGCAGCCCCUGCCCGGAUGGCAACAGCCGUUCCCGGAGGAGACACCAUGGGCCCUGAGCGUAUCUUCCCCAAUCAGACUGAGGAACUGGGACACAACAGAGGAUUGAGCAUCA
B10: chr22:36281679:36281692:-|3pUTR|ENSG00000100345|msi1_unk|total|mutant (ssRNA)
RNA: GGGAGUUCUACAGUCCGACGAUCUCUUGUGUCUACUCCCGGACUGGGCCCGAGGGUGGUUUACCUGCACCGUUGACUCAGUACCGUUUAAAAAUCUGCCACCUGCACAGGUAUUUUUGAAAGCAAAAUAAGGUUUUCUUUUUUCAACAGAGGAUUGAGCAUCA
B11: chr1:54043363:54043464:-|CDS|ENSG00000116209|msi1|total|mutant (ssRNA)
RNA: GGGAGUUCUACAGUCCGACGAUCCGCACAGAGCUUCAUAACCUCUUCAUGGACUUUUUAUCUUCAAGCCGAUGACGGAAAAACCGUUAUAUUCCAGGUGACAACUGAGCUUCAUGGAUUCAUCUAAAUACUAACAACAGUAAACAACAGAGGAUUGAGCAUCA
B12: chr8:9779869:9779970:+|3pUTR|ENSG00000173273|msi1|total|mutant (ssRNA)
RNA: GGGAGUUCUACAGUCCGACGAUCGGAAUUUCCCGCUUUUCAAGCAGCAUAAGCCGAAUCAACAUCCGGAUGUUUUCAUGAAACCGCAUCCUUAUACUUCUUUGAGCUUGAUGUCCGUGGCCCGACUGAUUUCCCUUUGCUCUCCAACAGAGGAUUGAGCAUCA
B13: ENSG00000181610:stop:overlap|stop_codon|ENSG00000181610|stop_codon|NA|stop_codon (ssRNA)
RNA: GGGAGUUCUACAGUCCGACGAUCGACGAGUAGGCGAAGCAAGGACUGUGAGUAUUUCAUUGUUAAAAUUGUUACUGGGUUUAUAGUUGUCCCUCAGUAUGCACAGGGGAUUGGUGCUAGGGCCCCUGCAGAUACCAAUAUUCACAACAGAGGAUUGAGCAUCA
B14: chr3:100728682:100728848:+|CDS|ENSG00000114354|unk|total|mutant (ssRNA)
RNA: GGGAGUUCUACAGUCCGACGAUCUAAUGGCCAGCCAAGACCCCUUGAAUCAAGUCAGGUGAAAUAUCUCCGUCGAGAACUGACCGAACUUCGAAAUAAAGUGAAUCGUUUAUUGGACCGCUUGGAACCACCUGGAGAACCAGGCAACAGAGGAUUGAGCAUCA
B15: chr1:17067933:17068034:-|3pUTR|ENSG00000117115|msi1|total|mutant (ssRNA)
RNA: GGGAGUUCUACAGUCCGACGAUCACAUAAGGACCCUGGCCUACCCUCCAGCCCAACAGCCAGUUCUGGGUCAGCUGCCAACUCCGGGGUGGUUUGAUUAUCCCAUUGAAAUUCACCAGUGCCUUUGCCAAAGACCCUCUCAUUCAACAGAGGAUUGAGCAUCA
B16: chr14:55048714:55048815:+|3pUTR|ENSG00000180008|msi1|total|mutant (ssRNA)
RNA: GGGAGUUCUACAGUCCGACGAUCUUUCUAAUUUUGAACAGAUGACUCAGUCCUAAAUCUUUGCCUUUAUUUCCUAUAAAAUGCCGGUGAUACUUGUAACUCGACUUCCUGGAGUUAAUUCUUCAGCAAGAGGUGACCCUGGGACAACAGAGGAUUGAGCAUCA
B17: chr1:193014253:193014354:-|3pUTR|ENSG00000116750|unk|FALSE|unique (ssRNA)
RNA: GGGAGUUCUACAGUCCGACGAUCUUAAUAGGUAUAAGGAUUUUUCUUAUUAAUCUAAUAAAAUUCCUUAAUAGGAAUUUCCAUAGCUUAAGAGUGGUUUAUUUUAUCUGCAUCUUCUUUGGUGAUUGCAAAUCCCUUGUGAUACAACAGAGGAUUGAGCAUCA
B18: chr1:93365539:93365640:+|3pUTR|ENSG00000117505|unk|total|mutant (ssRNA)
RNA: GGGAGUUCUACAGUCCGACGAUCAGGAGGCAAAAUUGCACCCUGUUGAAAACCACCACCUCCGAUCAUCCCGGUUUUACUUUCCGGAUAAGACACUUGAGGGAAAGGCUGUGAAACUGAACCUCUGUCCGAAGCAACACACAGCAACAGAGGAUUGAGCAUCA
B19: chr3:58171454:58171555:+|3pUTR|ENSG00000136068|msi1|total|mutant (ssRNA)
RNA: GGGAGUUCUACAGUCCGACGAUCGGUGAUUAUUUCUUGCAGAAUCACCACACGAGACCAUCCCGGCAGUCAUGGUUUUGCUUCCGUUUUCCAAGUCCGUUUCAGUCCCUUCCUUGGUCUGAAGAAAUUCUGCAGUGGCGAGCACAACAGAGGAUUGAGCAUCA
B20: chr17:81922623:81922724:-|CDS|ENSG00000197063|msi1|total|mutant (ssRNA)
RNA: GGGAGUUCUACAGUCCGACGAUCUGCCGCCGGCCUGGGGCCCCUCGUCCCAGGCAAGGUGGCCGCCACCAGCGUCAUCACAACCGUAAAGUCCAAGACGGAUGCCCGAUCGCCGGGACGCGCGUCUGCCCAGGCGGGUCUUUGCAACAGAGGAUUGAGCAUCA
B21: ENSG00000198589:be:win_2901|CDS|ENSG00000198589|bound_else_gene|NA|bound_elsewhere_windowed (ssRNA)
RNA: GGGAGUUCUACAGUCCGACGAUCUUCAGUAGGAUCCCAGCAACCAGAUACGAAGGAUUCUCCUGUCUGUCCUCAUUUCACCACAAAUGGUAAUGAAAAUUCAAGUAUAGAGAAGACAAGUUCACUAGAAUCUGCAUCUAAUAUCAACAGAGGAUUGAGCAUCA
B22: chr22:36281679:36281692:-|3pUTR|ENSG00000100345|msi1_unk|FALSE|overlapping (ssRNA)
RNA: B10 RNA with C38U, C39A, C83U, C84A

Molecular target: T1, UNK ZnF1-6 (called full-length)
Test: nsRBNS (natural sequence RNA bind-n-seq); RBNS binding buffer (assumed for nsRBNS): 25 mM Tris pH 7.5, 150 mM KCl, 3 mM MgCl2, 0.01% Triton X-100, 500 ug/ml BSA, 20 U/ml SUPERase-In, 4 C; UNK is unkempt and MSI1 is Musashi-1; names of the RNAs are library labels; protein concentration not given here; high values mean tight binding

Binder	binding signal
B1	0.962 enrichment R
B2	1.12 enrichment R
B3	1.02 enrichment R
B4	0.89 enrichment R
B5	0.555 enrichment R
B6	0.422 enrichment R
B7	0.461 enrichment R
B8	1.36 enrichment R
B9	0.886 enrichment R
B10	0.546 enrichment R
B11	0.262 enrichment R
B12	0.433 enrichment R
B13	1.18 enrichment R
B14	0.409 enrichment R
B15	0.749 enrichment R
B16	0.373 enrichment R
B17	0.854 enrichment R
B18	0.506 enrichment R
B19	0.531 enrichment R
B20	0.549 enrichment R
B21	0.268 enrichment R
B22	0.854 enrichment R
